By IC50 is meant the dose at which the fit gives 50% viability; a fit beyond the top or the lowest dose is shown as a bound at that dose. AUC is the area under the same curve over the 256-fold range up to the top dose, as a fraction; values near 1 show little effect. An inferred top dose is not printed in the source and was worked back from the curve model. For some of these results: An entry number marks a drug with two screens in the source, which often give different values.
Key:
Assay in all cases: Viability of human cancer cell lines after 72 h of drug (GDSC screen)
[1] = compound: COc1cc(C(=O)NC2CCN(C)CC2)ccc1Nc1ncc2c(n1)N(C1CCCC1)CCC(=O)N2C(C)C [XMD11-85h]; settings: top dose 10 µM; top dose inferred
Procedure: (§1)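 Human cancer cell lines in 384-well plates, medium with 10% serum, drug for 72 h over a 256-fold dose range (nine 2-fold or five 4-fold steps up to the top dose). Adherent lines were fixed and stained with the nucleic acid dye Syto60, suspension lines read with resazurin; signal relative to control wells, capped at 0 and 100%. One two-parameter sigmoid per drug and line, fitted in a mixed model over all curves with the slope shared within a line.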

[2] = compound: Cn1ncnc1[C@H]1c2n[nH]c(=O)c3cc(F)cc(c23)N[C@@H]1c1ccc(F)cc1 [BMN-673]; settings: top dose 10 µM; top dose inferred
Procedure: as §1

[3] = compound: Cc1cc([C@@H](C)Nc2ccccc2C(=O)O)c2nc(N3CCOCC3)cc(=O)n2c1 [AZD6482]
Procedure: as §1

[4] = top dose 5 µM, screen: GDSC drug entry 1066, top dose inferred
[5] = top dose 5.12 µM, screen: GDSC drug entry 156

Cell Line	AUC [1]	IC50 [1] [µM]	AUC [2]	IC50 [2] [µM]	AUC [3, 4]	IC50 [3, 4] [µM]	AUC [3, 5]	IC50 [3, 5] [µM]
451Lu (melanoma, adherent)	0.974	> 10	0.878	9.36	0.9	> 5	0.94	> 5.12
8505C (thyroid, adherent)	0.959	> 10	0.826	6.57	0.938	> 5	0.937	> 5.12
A101D (melanoma, adherent)	0.871	> 10	0.769	4.66	0.936	> 5	0.741	1.88
A388 (skin, adherent)	0.968	> 10	0.902	> 10	0.901	> 5	0.936	> 5.12
A427 (non-small cell lung carcinoma, adherent)	0.965	> 10	0.95	> 10	0.951	> 5	0.668	0.944
A2058 (melanoma, adherent)	0.947	> 10	0.135	0.0537	–	–	0.859	3.54
ABC-1 (lung adenocarcinoma, adherent)	0.958	> 10	0.79	5.51	0.963	> 5	0.926	> 5.12
BE-13 (lymphoblastic leukaemia, suspension)	0.902	> 10	0.95	> 10	0.937	> 5	0.987	> 5.12
BHT-101 (thyroid, adherent)	0.814	5.65	0.751	3.39	0.648	0.814	0.898	> 5.12
BICR10 (head and neck, adherent)	0.945	> 10	0.843	8.74	0.947	> 5	0.848	4.71
BT-474 (breast, adherent)	0.958	> 10	0.96	> 10	0.904	> 5	0.917	> 5.12
C2BBe1 (large intestine, adherent)	0.968	> 10	0.903	> 10	0.883	> 5	0.885	> 5.12
CAL-12T (non-small cell lung carcinoma, adherent)	0.966	> 10	0.821	6.71	0.89	> 5	0.915	> 5.12
CAL-27 (head and neck, adherent)	0.907	> 10	0.696	2.25	0.943	> 5	0.877	> 5.12
CAL-33 (head and neck, adherent)	0.923	> 10	0.561	0.915	0.814	2.71	0.733	–
CAL-62 (thyroid, adherent)	0.918	> 10	0.341	0.232	–	–	–	–
CGTH-W-1 (thyroid, adherent)	0.979	> 10	0.777	3.99	0.968	> 5	0.84	3.48
CHP-212 (neuroblastoma, adherent)	0.912	> 10	0.254	0.132	0.919	> 5	0.94	> 5.12
CL-11 (large intestine, adherent)	0.951	> 10	0.851	9.16	0.949	> 5	0.986	> 5.12
COLO-829 (melanoma, adherent)	0.967	> 10	0.823	> 10	0.936	> 5	0.765	2.8
CP50-MEL-B (melanoma, adherent)	0.965	> 10	0.768	3.71	0.93	> 5	0.988	> 5.12
CS1 (bone, adherent)	0.98	> 10	0.789	5	0.953	> 5	0.832	3.82

Cell Line	AUC [1]	IC50 [1] [µM]	AUC [2]	IC50 [2] [µM]	AUC [3, 4]	IC50 [3, 4] [µM]	AUC [3, 5]	IC50 [3, 5] [µM]
CW-2 (large intestine, adherent)	0.978	> 10	0.961	> 10	0.972	> 5	0.989	> 5.12
CaR-1 (large intestine, adherent)	0.961	> 10	0.775	6.21	0.76	2.67	0.896	> 5.12
D-247MG (glioma, adherent)	0.964	> 10	0.836	> 10	0.897	> 5	0.796	3.48
D-336MG (glioma, adherent)	0.948	> 10	0.898	> 10	0.702	1.37	0.66	1.02
D-423MG (glioma, adherent)	0.977	> 10	0.79	5.58	0.722	1.56	–	–
D-566MG (glioma, adherent)	0.968	> 10	0.465	0.503	0.777	1.98	–	–
DBTRG-05MG (glioma, adherent)	0.978	> 10	0.858	> 10	0.938	> 5	0.825	3.81
DMS-114 (small cell lung carcinoma, adherent)	0.964	> 10	0.86	> 10	0.949	> 5	0.973	> 5.12
DOK (head and neck, adherent)	0.91	> 10	0.743	4.53	0.669	1.17	0.738	2.21
DOV13 (ovary, adherent)	0.953	> 10	0.702	2.55	0.845	4.5	–	–
Daudi (Burkitt lymphoma, suspension)	0.876	7.76	0.652	1.55	0.971	> 5	0.691	1.01
DoTc2-4510 (cervix, adherent)	0.969	> 10	0.867	8.27	0.974	> 5	0.892	> 5.12
EMC-BAC-2 (lung adenocarcinoma, adherent)	0.921	> 10	0.61	1.33	0.882	> 5	–	–
EPLC-272H (lung squamous cell carcinoma, adherent)	0.92	> 10	0.861	> 10	0.894	> 5	0.929	> 5.12
ES1 (Ewing sarcoma, adherent)	0.942	> 10	0.154	0.055	0.933	> 5	0.96	> 5.12
ES6 (Ewing sarcoma, adherent)	0.962	> 10	0.914	> 10	0.949	> 5	0.849	> 5.12
ES8 (Ewing sarcoma, adherent)	0.936	> 10	0.079	< 0.0391	0.903	> 5	0.978	> 5.12
ESS-1 (endometrium, adherent)	0.969	> 10	0.537	0.778	0.942	> 5	0.897	> 5.12
EVSA-T (breast, adherent)	0.915	> 10	0.897	9.33	0.432	0.209	0.832	2.64
EW-24 (Ewing sarcoma, semi-adherent)	0.964	> 10	0.927	> 10	0.968	> 5	0.993	> 5.12
EoL-1-cell (haematopoietic neoplasm, suspension)	0.889	9.07	0.72	2.4	–	–	0.97	> 5.12
FADU (head and neck, adherent)	0.962	> 10	0.475	0.537	0.944	> 5	0.93	> 5.12

Cell Line	AUC [1]	IC50 [1] [µM]	AUC [2]	IC50 [2] [µM]	AUC [3, 4]	IC50 [3, 4] [µM]	AUC [3, 5]	IC50 [3, 5] [µM]
FLO-1 (oesophagus, adherent)	0.909	> 10	0.815	8.94	0.691	1.37	–	–
G-401 (kidney, adherent)	0.932	> 10	0.723	2.89	0.935	> 5	0.832	3.73
GP5d (large intestine, adherent)	0.972	> 10	0.92	> 10	0.986	> 5	0.985	> 5.12
GRANTA-519 (B-cell lymphoma, suspension)	0.99	> 10	0.893	9.81	0.919	> 5	0.981	> 5.12
H2369 (mesothelioma, adherent)	0.972	> 10	0.819	5.94	0.938	> 5	0.504	0.328
H2461 (mesothelioma, adherent)	0.903	> 10	0.588	1.15	0.978	> 5	0.977	> 5.12
H2722 (mesothelioma, adherent)	0.934	> 10	0.925	> 10	0.941	> 5	0.933	> 5.12
H2795 (mesothelioma, adherent)	0.96	> 10	0.748	3.18	0.89	> 5	0.861	4.24
H2803 (mesothelioma, adherent)	0.933	> 10	0.842	8.72	0.926	> 5	0.959	> 5.12
H2804 (mesothelioma, adherent)	0.961	> 10	0.576	1.03	0.944	> 5	0.929	> 5.12
H2810 (mesothelioma, adherent)	0.958	> 10	0.646	1.66	–	–	–	–
HCC1419 (breast, adherent)	0.969	> 10	0.971	> 10	0.918	> 5	0.94	> 5.12
HCC1954 (breast, adherent)	0.982	> 10	0.952	> 10	0.822	3.57	0.822	3.66
HCC-15 (lung squamous cell carcinoma, adherent)	0.924	> 10	0.915	> 10	0.881	> 5	0.979	> 5.12
HCC-56 (large intestine, adherent)	0.984	> 10	0.979	> 10	0.986	> 5	0.972	> 5.12
HCT-15 (large intestine, adherent)	0.985	> 10	0.925	> 10	0.926	> 5	0.977	> 5.12
NH-12 (neuroblastoma, adherent)	0.951	> 10	–	–	0.9	> 5	0.826	3.61
OCI-LY7 (B-cell lymphoma, suspension)	0.988	> 10	–	–	0.574	0.472	–	–
U-2-OS (osteosarcoma, adherent)	0.976	> 10	–	–	0.876	> 5	0.962	> 5.12
UWB1.289 (ovary, adherent)	0.97	> 10	–	–	0.899	> 5	–	–
ZR-75-30 (breast, adherent)	0.971	> 10	0.955	> 10	–	–	–	–
